Assay results as given in patent publication US10124065B2, “Lipids and lipid compositions for the delivery of active agents” (Novartis AG, priority 2013, dated 2018).
At least one structure is not confirmed: it was looked up by name or label, or the drawing left a doubt.

Legend:
Assay type in all cases: physicochemical
[1] = Polydispersity index (PDI) of lipid nanoparticle (dynamic light scattering)
Description: Unless indicated otherwise, all PDIs referred to herein are the PDI of the fully formed nanoparticle, as measured by dynamic light scattering on a Malvern Zetasizer. The nanoparticle sample was diluted in phosphate buffered saline (PBS) so that the count rate was approximately 200-400 kcts. The data is presented in Tables 4 and 5 as a weighted average of the intensity measure.

[2] = Particle size of lipid nanoparticle (dynamic light scattering, Malvern Zetasizer)
Text: The lipid nanoparticles have a size of about 1 to about 2,500 nm, about 1 to about 1,500 nm, about 1 to about 1,000 nm, in a sub-embodiment about 50 to about 600 nm, in a sub-embodiment about 50 to about 400 nm, in a sub-embodiment about 50 to about 250 nm, and in a sub-embodiment about 50 to about 150 nm. Unless indicated otherwise, all sizes referred to herein are the average sizes (diameters) of the fully formed nanoparticle, as measured by dynamic light scattering on a Malvern Zetasizer. The nanoparticle sample is diluted in phosphate buffered saline (PBS) so that the count rate is approximately 200-400 kcts. The data is presented as a weighted average of the intensity measure. Unless indicated otherwise, all particle size measurements referred to in Tables 4 and 5 are the Z-average particle size of the fully formed nanoparticle, as measured by dynamic light scattering on a Malvern Zetasizer. The nanoparticle sample was diluted in phosphate buffered saline (PBS) so that the count rate is approximately 200-400 kcts.

[3] = Measurement of mRNA encapsulation (Quant-iT Ribogreen); conditions: leptin mRNA in lipid nanoparticles (cationic lipid, DSPC, cholesterol, stealth lipid)
Description: All equipment and disposable supplies were certified free of RNase activity by the manufacturer or rendered RNase free by use of the RNaseZap reagent (LifeTechnologies). mRNA was encapsulated at a cationic lipid amine to mRNA phosphate (N:P) molar ratio of 4:1. Lipids (cationic lipid, DSPC, cholesterol and lipidated PEG or stealth lipid) were dissolved in ethanol. The molar ratios were […], respectively. The mixture was sonicated briefly, then gently agitated for 5 minutes and then maintained at 37° C. until use. mRNA was exchanged into citrate buffer pH 5.8-6.0 by use of Amicon Ultra-15 centrifugal concentrators, and the final concentration was adjusted to 0.5 mg/ml and held at 37° C. until use. An equal volume of lipids in ethanol, mRNA in citrate buffer, and citrate buffer alone were drawn into disposable syringes. Tubing leading from syringes containing lipids and mRNA are attached to the T junction, and tubing leading from the syringe containing citrate buffer alone was paired with the tubing exiting the T-junction over a collection vessel containing a stir bar on an active stir plate. Syringes were placed in a syringe pump set to expel contents at a flow rate of 1 ml per minute.
The pump was activated, and the collected mRNA in lipid nanoparticles was transferred to SnakeSkin dialysis tubing (10,000 MWCO, Thermo Scientific). Material was dialyzed against RNAse- and pyrogen-free 1× phosphate buffered saline overnight at 4° C.
Percent encapsulation of mRNA in lipid nanoparticles was determined using the Quant-iT Ribogreen RNA Assay kit (Life Technologies). The LNP-mRNA suspension was assayed in buffer (mRNA outside the particle), and buffer plus Triton X-100 detergent (total mRNA). The difference calculated was the mRNA inside the particle. A 1000 ng/mL stock from the RNA provided in the kit was prepared and used to generate a standard curve (0 ng/ml, 15.63-1000 ng/ml) in TE and TE+0.75% Triton X-100. LNP-mRNA samples in TE buffer and TE buffer+0.75% Triton X-100 were prepared with appropriate dilution so that reading was in the range of standard curve (400-2,000 fold). In a 384-well plate (Costar non-treated #3573) 0.04 ml of standard (in duplicate) or sample (in triplicate) were added per well. Ribogreen reagent was diluted 240-fold in TE buffer and added 0.06 ml per well. The contents of wells were mixed and fluorescence was measured (excitation=480 nm, emission=520 nm). Background values (no RNA) were subtracted from standard and test sample values and the concentrations of RNA were determined in the samples using the standard curves. The percent encapsulation of the sample was determined by dividing the difference in concentrations between sample+triton and sample in buffer alone by the sample+triton concentration.

[4] = FVII siRNA LNP, Chol/DSPC/S010, molar ratio 45/44/9/2
[5] = PLK1-424 siRNA LNP, Chol/DSPC/S010 45/44/9/2
[6] = leptin mRNA lipid nanoparticles
[7] = FVII siRNA LNP, Chol/DSPC/S010, molar ratio 45/44/9/2, Z-average
[8] = FVII siRNA LNP, Chol/DSPC/PEG-DMG, molar ratio 45/44/9/2
[9] = FVII siRNA LNP, Chol/DSPC/PEG-DMG, molar ratio 45/44/9/2, Z-average
[10] = PLK1-424 siRNA LNP, Chol/DSPC/PEG-DSG 45/44/9/2

Question: What does the source list for `CCCCC/C=C\C/C=C\CCCCCCCC(=O)OCCCOc1cc(CN(C)C)cc(OCCCOC(=O)CCCCCCC/C=C\C/C=C\CCCCC)c1` [Example 39, (9Z,9′Z,12Z,12′Z)-((5-((dimethylamino)methyl)-1,3-phenylene)bis(oxy))bis(propane-3,1-diyl)bis(octadeca-9,12-dienoate)]?
Answer: PDI [1, 4]: 0.044; PDI [1, 5]: 0.039; PDI [1, 6]: 0.090; Size (nm) [2, 7]: 122.9 nm; Size (nm) [2, 5]: 114.3 nm; Size (nm) [2, 6]: 156.0 nm; % encapsulation [3]: 73.1%

Question: Which PDI [1, 8] does the source give for `CCCCCCCC(=O)OCCCCCCCCCCOc1cc(CN(C)C)cc(OCCCCCCCCCCOC(=O)CCCCCCC)c1` [Example 43, ((5-((dimethylamino)methyl)-1,3-phenylene)bis(oxy))bis(decane-10,1-diyl)dioctanoate] here?
Answer: Its PDI is 0.08.

Question: What about the PDI [1, 4] of the same compound?
Answer: The PDI was 0.066.

Question: And the PDI [1, 5]?
Answer: Its PDI is 0.046.

Question: What about the PDI [1, 6] of the same compound?
Answer: The PDI was 0.042.

Question: What about the “Size (nm)” value [2, 9] of the same compound?
Answer: Its value is 157.8 nm.

Question: And the “Size (nm)” value [2, 7]?
Answer: The value was 121.9 nm.

Question: And the “Size (nm)” value [2, 5]?
Answer: Its value is 150.7 nm.

Question: What about the “Size (nm)” value [2, 6] of the same compound?
Answer: The value was 176.0 nm.

Question: And the “% encapsulation” value [3]?
Answer: Its value is 71.1%.

Question: For `CCCCCCCCCC(=O)OCCCCCCCCOc1cc(CN(C)C)cc(OCCCCCCCCOC(=O)CCCCCCCCC)c1` [Example 52, ((5-((dimethylamino)methyl)-1,3-phenylene)bis(oxy))bis(octane-8,1-diyl)bis(decanoate)], which PDI [1, 8] is on record?
Answer: The PDI was 0.1.

Question: And the PDI [1, 4]?
Answer: The PDI was 0.052.

Question: What about the PDI [1, 10] of the same compound?
Answer: The PDI was 0.06.

Question: What about the PDI [1, 5] of the same compound?
Answer: The PDI was 0.06.

Question: And the PDI [1, 6]?
Answer: Its PDI is 0.109.

Question: And the “Size (nm)” value [2, 9]?
Answer: The value was 109.4 nm.

Question: What about the “Size (nm)” value [2, 7] of the same compound?
Answer: The value was 145.4 nm.

Question: And the “Size (nm)” value [2, 10]?
Answer: The value was 132.2 nm.

Question: And the “Size (nm)” value [2, 5]?
Answer: Its value is 132.2 nm.

Question: What about the “Size (nm)” value [2, 6] of the same compound?
Answer: The value was 143.9 nm.

Question: And the “% encapsulation” value [3]?
Answer: The value was 95.1%.

Question: What does the source list for `CCCCCCCCCCCC(=O)OCCCCCCOc1cc(CN(C)C)cc(OCCCCCCOC(=O)CCCCCCCCCCC)c1` [Example 59, ((5-((dimethylamino)methyl)-1,3-phenylene)bis(oxy))bis(hexane-6,1-diyl)didodecanoate]?
Answer: PDI [1, 4]: 0.064; PDI [1, 6]: 0.106; Size (nm) [2, 7]: 92.56 nm; Size (nm) [2, 6]: 134.7 nm; % encapsulation [3]: 87.0%

Question: For `CCCCCCCC(=O)OCCCCCC(=O)OCc1cc(COC(=O)CCCCCOC(=O)CCCCCCC)cc(CN(C)C)c1` [Example 85, (((5-((dimethylamino)methyl)-1,3-phenylene)bis(methylene))bis(oxy))bis(6-oxohexane-6,1-diyl)dioctanoate], which PDI [1, 6] is on record?
Answer: Its PDI is 0.125.

Question: What about the “Size (nm)” value [2, 6] of the same compound?
Answer: The value was 134.8 nm.

Question: And the “% encapsulation” value [3]?
Answer: The value was 93.1%.

Question: With `CCCCCCCC(=O)OC[C@@H](CCOc1cc(CN(C)C)cc(OCC[C@@H](COC(=O)CCCCCCC)OC(=O)CCCCCCC)c1)OC(=O)CCCCCCC` [Example 92, (R)-4-(3-((S)-3,4-bis(octanoyloxy)butoxy)-5-((dimethylamino)methyl)phenoxy)butane-1,2-diyldioctanoate] as the compound, how does the PDI [1, 4] read?
Answer: The PDI was 0.065.

Question: And the PDI [1, 6]?
Answer: The PDI was 0.073.

Question: And the “Size (nm)” value [2, 7]?
Answer: The value was 117.3 nm.

Question: And the “Size (nm)” value [2, 6]?
Answer: Its value is 134.2 nm.

Question: And the “% encapsulation” value [3]?
Answer: The value was 72.5%.
